The values that follow come from the supplement of paper PMC4723716.

Each structure is given as a SMILES string. ± gives the uncertainty stated by the source. Over roughly 9,900 compounds, “viability index relative to DMSO control” has its median near 1; the lowest 2% begin near 0.85. This is one part of the list.

The experiment relates to Plasmodium falciparum NF54 stage V gametocytes. Put plainly: viability index relative to DMSO control (fraction); higher = less gametocyte killing. Conditions: 2.5 µM, library set: Broad Institute DOS, incubation time: 72 h. The procedure: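 Broad DOS informer set and blood-stage-active DOS compounds screened in duplicate at 2.5 µM against P. falciparum NF54 stage V gametocytes with the serum-free one-step SaLSSA (1536-well): 72 h at 37 °C under low oxygen, then saponin lysis and MitoTracker Red CMXRos staining, with high-content imaging. Viability index = viable-object count divided by the plate mean of DMSO wells (0 = killed, about 1 = inactive).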
`CO[C@@H]1CN(C)C(=O)c2ccc(NS(=O)(=O)c3ccc(C)cc3)cc2OC[C@H](C)N(C)C[C@H]1C` had a viability index of 1.15 ± 0.063. With `CO[C@@H]1CN(C)C(=O)c2cc(NS(=O)(=O)c3cccc(Cl)c3)ccc2OC[C@@H](C)NC[C@@H]1C`, the viability index is 1.09 ± 0.04. The value for `COc1ccc2c3c([nH]c2c1)[C@H](CO)N(Cc1cc(OC)cc(OC)c1)C[C@]31CCN(CC1)C(=O)c1cccnc1` was 1 ± 0.012; that for `COc1ccc2c3c([C@@H](CO)NC[C@]33CN(Cc4ccc(cc4)-c4ccccn4)C3)n(C)c2c1` was 0.997 ± 0.019; that for `O=C(Nc1ccc(F)cc1)N1CC(=O)N2[C@@H](CO)[C@H](c3ccc(C#Cc4cccnc4)cc3)[C@@H]2C1` was 1.11 ± 0.058. Compound `C[C@H]1CN([C@@H](C)CO)C(=O)c2cc(NS(=O)(=O)c3cn(C)cn3)ccc2O[C@@H]1CN(C)C(=O)Nc1cccc2ccccc12` displayed a viability index of 0.954 ± 0.24. Compound `CS(=O)(=O)N1CC(=O)N2[C@H](CO)[C@@H](c3ccc(Br)cc3)[C@@H]2C1` returned a viability index of 1.09 ± 0.032. On to `N#C[C@H]1[C@H](c2ccccc2)[C@@H](CO)N1C(=O)c1cc(Cl)cc(Cl)c1`, for which the viability index was found to be 1.09 ± 0.015.

Compound `CC(C)NC(=O)N1[C@@H]2CNc3ccccc3[C@@H]2[C@@H]1CO` registered a viability index of 1.06 ± 0.085. `CO[C@@H]1CN(C)C(=O)c2ccc(NC(=O)c3cc(C)on3)cc2OC[C@@H](C)NC[C@H]1C` gave a viability index of 1.02 ± 0.026. As for `C[C@@H]1CN([C@@H](C)CO)C(=O)Cc2cc(NC(=O)C3CCCCC3)ccc2O[C@@H]1CN(C)Cc1ccc(Cl)c(Cl)c1`, the viability index is 1.02 ± 0.22.

`C/C=C/c1ccc2n(c1=O)C[C@H]1[C@H](CO)[C@@H](C(=O)NCc3ccc4c(c3)OCO4)[C@@H]2N1C(=O)COC.C/C=C\c1ccc2n(c1=O)C[C@H]1[C@H](CO)[C@@H](C(=O)NCc3ccc4c(c3)OCO4)[C@@H]2N1C(=O)COC` had a viability index of 1.01 ± 0.011. Compound `COc1ccc2c3c([C@H](CO)NC[C@]33CCN(Cc4cc(F)ccc4F)CC3)n(C)c2c1` registered a viability index of 0.9313 ± 0.0015. The same measure for `C[C@@H]1CN([C@H](C)CO)C(=O)c2c(c3ccccc3n2C)-c2ccccc2CO[C@H]1CN(C)C(=O)NC1CCCCC1`: 0.981 ± 0.12; for `O=C1[C@H](Cc2ccc(C(F)(F)F)cc2)CCn2nncc2COC[C@H]2CCCCN12`: 1.06 ± 0.025; for `O=C(C[C@@H]1CC[C@@H]2[C@H](COC[C@@H](O)CN2C(=O)CCN2CCCCC2)O1)NCc1ccncc1`: 1.01 ± 0.055. With `C[C@@H]1CCCCO[C@@H](CN(C)CC2CCCCC2)[C@@H](C)CN([C@@H](C)CO)C(=O)c2cc(NS(C)(=O)=O)ccc2O1`, the viability index is 1.15 ± 0.16.

`O=C(c1ccccc1F)N1CC(=O)N2[C@@H](CO)[C@H](c3ccc(C#Cc4ccccc4)cc3)[C@@H]2C1` displayed a viability index of 1.02 ± 0.027. Compound `CCCC(=O)Nc1ccc2c(c1)C(=O)N(C)C[C@@H](OC)[C@H](C)CN(Cc1ccc(F)cc1)[C@@H](C)CO2` had a viability index of 0.882 ± 0.071.

`CN1C(=O)c2cc(NC(=O)c3cnccn3)ccc2OC[C@H]2O[C@H](CC(=O)N[C@H]3CCN(Cc4ccccc4)C3)CC[C@@H]21`: the viability index amounted to 1.05 ± 0.038.

On to `CCS(=O)(=O)Nc1ccc2c(c1)C(=O)N(C)[C@@H]1CC[C@H](CC(=O)NC3CCCCC3)O[C@H]1CO2`, for which the viability index stood at 1.05 ± 0.047. `C[C@@H]1CN([C@@H](C)CO)C(=O)c2cc(C#CC3(O)CCCC3)cnc2O[C@H]1CN(C)S(=O)(=O)c1cccc(F)c1`: the viability index came to 1.08 ± 0.1. `CO[C@@H](CN(C)Cc1nccs1)[C@@H](C)CN([C@@H](C)CO)S(=O)(=O)c1ccc(F)cc1` had a viability index of 1.04 ± 0.0028. The value for `COc1ccc2c3c([nH]c2c1)[C@@H](CO)N(C[C@]31CN(C1)C(=O)Cc1cccnc1)S(C)(=O)=O` was 1.06 ± 0.048; that for `CN(C)C(=O)c1ccc(-c2ccc([C@H]3[C@@H](C#N)N(C(=O)C4CC4)[C@@H]3CO)cc2)cc1` was 1.13 ± 0.092. Take `COC(=O)[C@H]1N[C@H]2c3ccc(C4=CCCCC4)c(=O)n3C[C@H]2[C@@H]1CO`: the viability index was determined as 1.02 ± 0.04.

On to `COCCN(C[C@H]1N[C@H](CO)[C@@H]1c1ccccc1)C(=O)NC1CCCC1`, for which the viability index came to 1.01 ± 0.013.

In turn, `O=C(NCC[C@H]1CC[C@@H](NC(=O)c2ccncc2)[C@H](CO)O1)Nc1ccc(Cl)cc1` gave a viability index of 1.17 ± 0.023.

`CCCC(=O)Nc1ccc2c(c1)C(=O)N(C)C[C@@H](OC)[C@@H](C)CN(C(=O)c1ccccn1)[C@@H](C)CO2` gave a viability index of 1.05 ± 0.019. The same measure for `C/C=C/c1ccccc1[C@H]1[C@@H](C#N)N(c2nc(CC)cs2)[C@@H]1CO`: 1.18 ± 0.016; for `CCCNC(=O)N1C[C@@]2(C1)CN([C@@H](CO)c1[nH]c3cc(OC)ccc3c21)C(=O)NC1CCCC1`: 1.04 ± 0.055. Take `CCS(=O)(=O)Nc1ccc2c(c1)C(=O)N(C)[C@@H]1CC[C@H](CC(=O)N3CCN(C)CC3)O[C@H]1CO2`: the viability index worked out at 1.07 ± 0.034. The value for `C[C@H](CO)N1C[C@H](C)[C@@H](CN(C)C(=O)C2CCCCC2)OCCCC[C@H](C)Oc2ccc(NS(=O)(=O)c3ccccc3)cc2C1=O` was 1.05 ± 0.061; that for `O=C(C[C@H]1CC[C@@H]2[C@H](COC[C@@H](O)CN2S(=O)(=O)c2ccc(F)cc2)O1)NCCN1CCCCC1` was 1.113 ± 0.0099. Compound `CN(C)C(=O)c1cccc(-c2ccc([C@H]3[C@H]4CN(C(=O)C5CCC5)CC(=O)N4[C@H]3CO)cc2)c1` returned a viability index of 1.04 ± 0.085.

In the case of `N#C[C@H]1[C@@H](c2ccc(-c3ccccc3)cc2)[C@@H](CO)N1S(=O)(=O)Cc1ccccc1`, the viability index turned out to be 0.991 ± 0.033.

For the compound `O=C(C[C@H]1C=C[C@H](NC(=O)Nc2ccccc2F)[C@@H](CO)O1)NCc1ccc(-c2ccccc2)cc1`, the viability index worked out at 1.07 ± 0.036.

`N#C[C@H]1[C@H](c2ccc(-c3cccc(F)c3)cc2)[C@@H](CO)N1C(=O)NC1CCCC1` gave a viability index of 1.108 ± 0.0084. `COc1ccc(NC(=O)N(C)C[C@@H]2OCCCC[C@H](C)Oc3ccc(NC(=O)c4ccncc4)cc3C(=O)N([C@H](C)CO)C[C@H]2C)cc1` came in with a viability index of 0.99 ± 0.059.

`COCC(=O)N1[C@H](C#N)[C@@H](c2ccccc2-c2ccccc2F)[C@H]1CO` yielded a viability index of 1.18 ± 0.064. Compound `CCCNC(=O)N(C)C[C@H]1Oc2ncc(C#CC3CCCCC3)cc2C(=O)N([C@H](C)CO)C[C@@H]1C` yielded a viability index of 1.05 ± 0.078.

Compound `COCC#Cc1ccc([C@H]2[C@H](CO)N3C(=O)CN(C(=O)CN4CCOCC4)C[C@@H]23)cc1` gave a viability index of 1.1 ± 0.053. Consider `COCCNC(=O)C[C@@H]1CC[C@H]2[C@H](COc3ccc(NS(=O)(=O)c4ccc(Cl)cc4)cc3C(=O)N2C)O1`, for which the viability index turned out to be 1.08 ± 0.037. In turn, `C[C@@H]1CN([C@H](C)CO)C(=O)c2cc(NS(=O)(=O)c3cn(C)cn3)ccc2O[C@H]1CN(C)C(=O)Nc1cccc2ccccc12` yielded a viability index of 0.959 ± 0.032. Compound `CCCC(=O)Nc1ccc2c(c1)OC[C@@H](C)NC[C@H](C)[C@@H](OC)CN(C)C2=O` had a viability index of 1.04 ± 0.0082. On to `CCCNC(=O)N1[C@H](CO)[C@@H](c2ccccc2-c2ccc(OC)cc2)[C@@H]1C#N`, for which the viability index came out at 1.15 ± 0.089.

In turn, `CC(=O)N1[C@H](CO)[C@H](c2ccccc2)[C@@H]1CNC(=O)CN1CCOCC1` came in with a viability index of 1.06 ± 0.022.

With `CCC(=O)N1[C@H](CO)[C@H](c2ccc(-c3cccc(OC)c3)cc2)[C@@H]1CNC(C)=O`, the viability index was determined as 1.056 ± 0.0058.

`C(=C\c1ccc([C@H]2[C@H]3CNC[C@@H]2N3CC2CCOCC2)cc1)/c1ccccc1`: the viability index was 1.07 ± 0.034.

`CCCN(C)C[C@@H]1OCCCC[C@H](C)Oc2ccc(NC(=O)CCCN(C)C)cc2C(=O)N([C@@H](C)CO)C[C@@H]1C` came in with a viability index of 1.1 ± 0.14. The same measure for `CO[C@H]1CN(C)C(=O)c2cccc(C#N)c2OCC[C@H]2CC[C@H](OC)[C@@H](CN(C)C(=O)[C@H]1C)O2`: 1.018 ± 0.0011; for `C[C@@H]1CN([C@@H](C)CO)C(=O)c2c(c3ccccc3n2C)-c2ccccc2CO[C@@H]1CN(C)C(=O)Nc1ccc2c(c1)OCO2`: 0.992 ± 0.12.

In turn, `COC(=O)C[C@H]1CC[C@H]2[C@H](COc3ccc(NC(=O)Nc4c(C)noc4C)cc3C(=O)N2C)O1` had a viability index of 0.998 ± 0.022. `CNC[C@H]1Oc2cc(C3=CCCC3)ccc2S(=O)(=O)N([C@H](C)CO)C[C@@H]1C` registered a viability index of 1.07 ± 0.079. On to `CCC(=O)N1C[C@@H](C)[C@@H](OC)CN(C)C(=O)c2cc(NC(=O)Nc3ccc(Cl)cc3)ccc2OC[C@@H]1C`, for which the viability index was determined as 1.11 ± 0.075. The compound `CCCNC(=O)N1[C@H](CO)[C@@H](c2ccccc2-c2cccc(C)c2)[C@@H]1C#N` yielded a viability index of 1.14 ± 0.11. The value for `CC(C)CC#Cc1ccc([C@H]2[C@H]3CN(S(=O)(=O)c4cccc(F)c4)CC(=O)N3[C@H]2CO)cc1` was 0.975 ± 0.023.

`N#C[C@H]1[C@@H](c2ccccc2-c2cccc(F)c2)[C@@H](CO)N1C(=O)NC1CCCCC1` showed a viability index of 0.99 ± 0.088. `CC(C)CC#Cc1ccc([C@@H]2[C@H]3CN(C(=O)c4cccc(F)c4)CC(=O)N3[C@H]2CO)cc1` gave a viability index of 1.12 ± 0.082.

`N#Cc1ccc(-c2cccc(-c3nc(C(=O)O)cc4c3[C@@H](CCO)N(CC3CCOCC3)C4)c2)cc1` displayed a viability index of 0.983 ± 0.058. In turn, `C[C@@H]1CC(=O)NCC/C=C\C[C@H](c2ccc3c(c2)OCO3)NC1=O` gave a viability index of 1.059 ± 0.0056. The same measure for `CC(C)(C)[S@](=O)N1Cc2cc(C(=O)NCc3ccccc3F)nc(-c3cccc(-c4cncnc4)c3)c2[C@@H]1CCO`: 0.89 ± 0.056.

`OC[C@H]1[C@@H](c2ccc(C3=CCCC3)cc2)[C@@H]2CN(Cc3ccncc3)CCCCN12` returned a viability index of 0.845 ± 0.14. The value for `COc1ccc2c3c([C@H](CO)N(C)C[C@]33CN(C3)S(=O)(=O)c3cccc(C)c3)n(C)c2c1` was 0.982 ± 0.054; that for `OC[C@H]1[C@@H]2c3ccccc3NC[C@@H]2N1Cc1ccccc1Cl` was 0.963 ± 0.032. In the case of `CO[C@H]1CN(C)C(=O)c2cc(NS(C)(=O)=O)ccc2OC[C@@H](C)N(C(=O)C2CCOCC2)C[C@@H]1C`, the viability index came to 1.05 ± 0.027. The compound `O=C(Cc1cccnc1)N1CC(=O)N2[C@@H](CO)[C@H](c3ccc(C#CC4CCCCC4)cc3)[C@@H]2C1` registered a viability index of 1.06 ± 0.04. The value for `CN1CCN(C(=O)C[C@@H]2CC[C@@H]3[C@H](COc4ccc(NC(=O)C5CCOCC5)cc4C(=O)N3C)O2)CC1` was 1.03 ± 0.059.

Turning to `CCNC(=O)[C@@H]1[C@@H](CO)[C@@H]2Cn3c(ccc(-c4cncnc4)c3=O)[C@@H]2N1C(=O)NC1CCCC1`, the viability index came to 1.04 ± 0.021. In turn, `O=C(C[C@H]1C=C[C@H](NC(=O)CCN2CCCCC2)[C@@H](CO)O1)Nc1nccs1` yielded a viability index of 1.04 ± 0.13.

On to `C/C=C/c1cccc(-c2nc(C(=O)N3CCCCC3)cc3c2[C@@H](CCO)N(C(=O)NC(C)C)C3)c1`, for which the viability index worked out at 1.023 ± 0.0074.
